Laboratory results published in the supplement of paper PMC4166925.
± gives the standard deviation of the averaged measurements. Over roughly 33,000 sequences, “E-score (dimensionless, -0.5 to 0.5)” has its median near -0.046; the highest 2% begin near 0.36. Some of the results follow.

Tested on: T1, SpTbr T-box DNA-binding domain (GST fusion)
T1 sequence: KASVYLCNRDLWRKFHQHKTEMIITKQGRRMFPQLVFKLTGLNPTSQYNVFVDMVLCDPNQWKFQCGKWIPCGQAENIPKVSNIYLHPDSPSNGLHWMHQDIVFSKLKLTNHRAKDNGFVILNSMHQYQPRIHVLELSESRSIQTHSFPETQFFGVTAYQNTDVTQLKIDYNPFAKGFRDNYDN
Experiment: PBM E-score of 8-mer (E-score (dimensionless, -0.5 to 0.5)); Tbr is Tbrain of the sea star Patiria miniata (Pm) or the sea urchin Strongylocentrotus purpuratus (Sp); higher = stronger binding preference; most listed sequences are background and not binding sites
Settings: the construct has about 5 more residues each side
Outline: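 Using the Universal PBM Analysis Suite, every ungapped 8-mer received an enrichment E-score averaged over duplicate arrays. Probe intensities came from double-stranded Universal Agilent oligonucleotide arrays incubated with 200 nM GST-fused Tbr T-box DNA-binding domain in PBS (pH 7.5). That protein was expressed in BL21 E. coli at 20 °C and purified by glutathione affinity chromatography.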

| Sequence | PBM E-score of 8-mer |
| --- | --- |
| CGTATCGA | 0.0888 ± 0.052 |
| CGTGGGCA | -0.00054 ± 0.027 |
| CCACTCGA | 0.0269 ± 0.035 |
| AACATTGA | -0.00728 ± 0.0098 |
| CGTGAGAA | 0.347 ± 0.016 |
| CGCGGGAC | 0.0315 ± 0.064 |
| CATGGCAC | 0.168 ± 0.054 |
| CACTTCCG | 0.334 ± 0.0095 |
| CTGCCGCC | 0.0831 ± 0.063 |
| GTTGCCTA | -0.0282 ± 0.085 |
| CAAGTTGA | 0.16 ± 0.02 |
| GACCATCA | -0.184 ± 0.0046 |
| AAAGTTAA | -0.136 ± 0.012 |
| AAGTAAGT | -0.0459 ± 0.036 |
| AACGGCAG | -0.0394 ± 0.0079 |
| ACTTATAC | -0.0261 ± 0.0079 |
| ATTGTGTC | 0.228 ± 0.03 |
| CAATTCTC | -0.00088 ± 0.029 |
| GATCTCGC | 0.294 ± 0.025 |
| ATACCGCG | -0.0658 ± 0.021 |
| ATTTATTG | -0.134 ± 0.013 |
| ATAGAAAG | -0.129 ± 0.012 |
| GTTGGACA | 0.069 ± 0.035 |
| GAGCGCTC | -0.00869 ± 0.038 |
| TACTATGA | -0.225 ± 0.053 |

| Sequence | PBM E-score of 8-mer |
| --- | --- |
| AGTCGGAC | -0.309 ± 0.081 |
| CCGATTTC | -0.0463 ± 0.011 |
| AACTTCTC | -0.0445 ± 0.034 |
| CCCCGCCC | 0.0179 ± 0.047 |
| ATACCAAA | -0.0604 ± 0.041 |
| ATGCACTC | -0.0356 ± 0.012 |
| ACAGATAG | 0.131 ± 0.025 |
| GCTGGGTA | -0.245 ± 0.084 |
| AACAGTAT | -0.0762 ± 0.033 |
| ACTTATGG | -0.156 ± 0.017 |
| CCATTGAG | 0.049 ± 0.0017 |
| GGAGTTTA | 0.0473 ± 0.035 |
| AACGTTCC | -0.144 ± 0.0034 |
| CTTGAGAA | 0.17 ± 0.068 |
| ATTTCGTA | -0.0852 ± 0.1 |
| AATTATCC | -0.0952 ± 0.027 |
| ACATGGTA | 0.049 ± 0.016 |
| ATCAAAGG | -0.0537 ± 0.028 |
| ATGAGACC | -0.223 ± 0.0095 |
| CAAGGGCA | -0.222 ± 0.029 |
| ACGCCATC | 0.198 ± 0.021 |
| CCACCGAA | -0.11 ± 0.099 |
| ATTCATGA | -0.337 ± 0.033 |
| ATGGCCAA | -0.23 ± 0.013 |
| GTGTAATA | 0.216 ± 0.07 |

| Sequence | PBM E-score of 8-mer |
| --- | --- |
| GCGGGCCA | -0.033 ± 0.023 |
| TACATTAA | -0.204 ± 0.013 |
| AGATTTAG | -0.135 ± 0.097 |
| CTCTTGTC | 0.0456 ± 0.079 |
| TACTGGGA | -0.15 ± 0.064 |
| TGTGTTAA | 0.407 ± 0.011 |
| AGCGAGGG | 0.154 ± 0.021 |
| CGAAAGAA | -0.00235 ± 0.025 |
| AGTGCGAC | 0.341 ± 0.024 |
| ACCCGAGG | -0.173 ± 0.0036 |
| CCATTATA | -0.0941 ± 0.037 |
| ATGGTTTA | -0.139 ± 0.0058 |
| CTCGTTGC | -0.0203 ± 0.038 |
| GTACAACA | 0.00342 ± 0.013 |
| GTACACAA | 0.13 ± 0.0059 |
| CTATGACA | 0.113 ± 0.043 |
| GCAGGAAC | -0.0389 ± 0.047 |
| ATACATGC | -0.278 ± 0.046 |
| CGCGTTCA | 0.153 ± 0.037 |
| CATGCCGG | -0.0881 ± 0.043 |
| CGTCTTGA | 0.0659 ± 0.085 |
| AACAGAAA | -0.0336 ± 0.082 |
| ACGATGGC | 0.0959 ± 0.021 |
| ATCGTTGA | -0.12 ± 0.015 |
| AGCATTAG | -0.192 ± 0.063 |

| Sequence | PBM E-score of 8-mer |
| --- | --- |
| ATCGTCAA | 0.158 ± 0.0046 |
| CACCTTAG | 0.401 ± 0.04 |
| CTCTCTGC | -0.175 ± 0.011 |
| ACCCACGT | 0.143 ± 0.023 |
| AAACGGTA | -0.16 ± 0.014 |
| ACATTTAT | -0.0648 ± 0.056 |
| GCTCTTTA | -0.3325 ± 0.0015 |
| ACGGACTC | -0.184 ± 0.058 |
| GCAACCCC | 0.0268 ± 0.005 |
| ACTGAGAA | 0.022 ± 0.075 |
| ATGACGAG | -0.115 ± 0.059 |
| ATAAATGG | -0.262 ± 0.03 |
| CGGGATTA | -0.321 ± 0.048 |
| GAATAGTA | -0.0624 ± 0.043 |
| CGTATCCA | -0.287 ± 0.016 |
| AGTAAATC | -0.0239 ± 0.03 |
| GGATAAGA | -0.142 ± 0.0051 |
| AACACGCC | 0.245 ± 0.033 |
| GAAATGTC | 0.00241 ± 0.033 |
| AAGATTGA | 0.0172 ± 0.018 |
| CACTCCCG | 0.179 ± 0.021 |
| CGGACAAG | -0.0574 ± 0.0041 |
| CTAAGAAG | 0.116 ± 0.0052 |
| CAAACCCA | -0.0174 ± 0.031 |
| GAGCGACC | 0.0942 ± 0.02 |

| Sequence | PBM E-score of 8-mer |
| --- | --- |
| AAGCACCA | -0.111 ± 0.097 |
| AATGCCCG | 0.0567 ± 0.034 |
| ACCAATAG | -0.189 ± 0.01 |
| CCTCTGCC | -0.0817 ± 0.01 |
| AGTGCTTG | -0.141 ± 0.018 |
| CGAATGTC | 0.0371 ± 0.038 |
| ATTTGCCG | 0.0704 ± 0.0066 |
| CTCTCCTA | -0.181 ± 0.0087 |
| AACATACG | -0.012 ± 0.02 |
| CGAGTTTC | 0.0382 ± 0.045 |
| ACGGCGTG | 0.232 ± 0.0069 |
| AGTGGTTG | -0.0792 ± 0.038 |
| GAAGGACC | -0.178 ± 0.0037 |
| GAATAGCC | -0.156 ± 0.018 |
| AACAGCGA | 0.113 ± 0.034 |
| ATGAACAA | -0.00436 ± 0.014 |
| AATAGGCA | -0.136 ± 0.035 |
| GAGGCTAC | -0.176 ± 0.025 |
| GGACGCGA | 0.0206 ± 0.062 |
| AGCTGTAT | -0.252 ± 0.029 |
| ACCTTACC | -0.0718 ± 0.017 |
| TAGCAACA | 0.273 ± 0.012 |
| CCGCTAGC | 0.0636 ± 0.049 |
| ACTGTAGG | -0.105 ± 0.036 |
| ACGAAGGA | -0.187 ± 0.049 |

| Sequence | PBM E-score of 8-mer |
| --- | --- |
| AAAGGTCG | -0.112 ± 0.015 |
| TCATTAAA | -0.105 ± 0.035 |
| CTTACGTC | -0.104 ± 0.0097 |
| TCTTAAAA | -0.101 ± 0.1 |
| CTTAGTAA | -0.0946 ± 0.01 |
| GTTATGGA | -0.141 ± 0.015 |
| TCCATGCA | -0.18 ± 0.016 |
| ACTCTACA | 0.00395 ± 0.0024 |
| AGCACGCT | -0.104 ± 0.025 |
| CACTCCGA | 0.143 ± 0.0022 |
| CGAGCCTC | -0.146 ± 0.14 |
| CCGCAGGA | -0.256 ± 0.054 |
| ACGCCTCT | 0.30412 ± 0.00015 |
| CGCCGATA | 0.00773 ± 0.084 |
| ACCGAAGC | -0.057 ± 0.025 |
| ATCGCGCG | 0.337 ± 0.004 |
| ACGAAGGC | 0.0144 ± 0.031 |
| AGGCGACC | 0.012 ± 0.083 |
| GATCATCA | 0.0455 ± 0.025 |
| ACAGAAGT | 0.0979 ± 0.032 |
| ATCGATCA | 0.0465 ± 0.078 |
| TCACCTGA | 0.3337 ± 0.0032 |
| GCCAGCCC | -0.216 ± 0.011 |
| CCATGGAC | -0.0271 ± 0.055 |
| CCGTAAAC | 0.11 ± 0.086 |

| Sequence | PBM E-score of 8-mer |
| --- | --- |
| ATGTGGGA | 0.234 ± 0.041 |
| GCTGTACA | 0.049 ± 0.045 |
| AATTTGCG | 0.19 ± 0.056 |
| GAACATTC | -0.216 ± 0.042 |
| CTTGACAA | 0.323 ± 0.011 |
| GAGGCGAA | -0.0262 ± 0.12 |
| CGAGGGTC | 0.0434 ± 0.083 |
| GGCCTGAC | -0.0972 ± 0.049 |
| ACATTAGG | 0.0477 ± 0.0036 |
| CACTGGAA | -0.103 ± 0.065 |
| GACAAGCA | 0.111 ± 0.035 |
| ATTCTTTC | -0.151 ± 0.024 |
| GAGCGAGA | 0.148 ± 0.024 |
| AAGCTCGT | -0.152 ± 0.04 |
| ACTGGAAA | -0.176 ± 0.012 |
| GAAGTTTA | -0.105 ± 0.0085 |
| AGTCGGCG | -0.0578 ± 0.01 |
| ACTCGTGC | 0.199 ± 0.015 |
| GAGGGATC | 0.0589 ± 0.031 |
| CCCAACGA | -0.202 ± 0.044 |
| ACCTTAGT | -0.144 ± 0.058 |
| GACGACTC | 2e-05 ± 0.026 |
